Measured values published in PubChem BioAssay AID1240 (Sanford-Burnham Center for Chemical Genomics, 2008).
Hit rate of the full screen: of about 50,000 compounds, about 800 (1.6%) showed an effect of 50% or more. The list shows a part of the results.

What follows are molecules tested against Bcl-2-like protein 10 (Homo sapiens) (UniProt Q9HD36) (assay: TR3 peptide-Bcl-B binding displacers, biochemical primary FP assay, phenotype converters (AID 1240;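 note: 0% = Bcl-B with tracer peptide and DMSO and 100% = tracer peptide lacking Bcl-B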)). Conditions: GST-Bcl-B / FITC-TR3 peptide fluorescence polarization; stronger effect = higher value; compound at 3.75 mg/L.
UniProt Q9HD36, sequence (Q9HD36 whole entry, looked up): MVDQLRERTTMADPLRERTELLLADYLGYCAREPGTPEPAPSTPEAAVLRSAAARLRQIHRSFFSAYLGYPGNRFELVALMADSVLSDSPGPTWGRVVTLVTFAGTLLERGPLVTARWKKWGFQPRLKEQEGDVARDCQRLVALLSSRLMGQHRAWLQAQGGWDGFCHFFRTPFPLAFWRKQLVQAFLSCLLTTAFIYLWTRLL

Row | Structure (SMILES) | displacement
1 | COc1cc(N2CCCCC2)ccc1[N+](=O)[O-] | -4.2%
2 | O=C(NC(NC(=S)Nc1ccc(Cl)cc1Cl)C(Cl)(Cl)Cl)c1ccccc1Cl (configuration not stated) | -21.9%
3 | Cc1ccccc1NC(=O)C1CC(=O)N(c2cccc([N+](=O)[O-])c2)C1 (configuration not stated) | -12.2%
4 | CC(C)C(=O)Nc1sc2c(c1C(N)=O)CCCCC2 | 1.5%
5 | COc1ccc(NC(=O)/C(=C\c2cccc([N+](=O)[O-])c2)NC(=O)c2cccs2)cc1 | -3.4%
6 | O=C(c1cccc(F)c1)N1CCN(Cc2ccccn2)CC1 | 6.4%
7 | CCN1C(=O)/C(=C/c2ccc(N3CCCC3)cc2)C(=O)NC1=S | 3.9%
8 | CC(=O)CC(=O)Nc1cc(C)ccc1C | -4.5%
9 | O=C1N/C(=N\N=C\c2ccccc2F)SC1Cc1cccc([N+](=O)[O-])c1 (configuration not stated) | 3.8%
10 | Cc1ccccc1-n1c(C)cc(/C=N/NC(=O)c2ccc(CN3CCOCC3)cc2)c1C | -18.5%
11 | COc1cccc(/C=C2\SC(N3CCCC3)=NC2=O)c1OC | -15.2%
12 | CCOC(=O)C1=C(C)N(c2ccc(OC)cc2)C(=O)/C1=C\c1ccc(C(=O)O)cc1 | -3.4%
13 | O=c1[nH]c(SCCOc2ccccc2F)nc2ccccc12 | 2.5%
14 | Cc1ccccc1/C=N/N=C1\NC(=O)C(Cc2cccc([N+](=O)[O-])c2)S1 (configuration not stated) | 31.3%
15 | O=C1c2ccccc2C(=O)N1CCc1nc2ccccc2c(=O)n1-c1ccc(Br)cn1 | -10.3%
16 | COc1cc2c(cc1NC(=O)c1cccc(F)c1)oc1ccccc12 | -26.3%
17 | CC1CCCC(C(=O)O)N1C(=O)CCSC(=O)c1ccccc1 (configuration not stated) | 10.8%
18 | Cc1ccccc1/C(N)=N/OC(=O)c1ccc(C)c([N+](=O)[O-])c1 | 0.4%
19 | CC1=C(C(=O)Nc2cccc(Cl)c2)C(c2cccs2)NC(=S)N1 (configuration not stated) | -9.2%
20 | CC(=O)Oc1ccc(-c2cccc(C(=O)Nc3ccc([N+](=O)[O-])cc3)c2)cc1 | 7.8%
21 | COc1ccc(C(=O)Nc2ccc(Br)cc2F)c(OC)c1 | -0.3%
22 | COc1ccc(Cl)cc1C(=O)Nc1cccc(-c2nc3ncccc3o2)c1C | 1.9%
23 | O=C1NN(c2ccc(Cl)cc2)C(=O)/C1=C\c1ccc(O)c(O)c1 | 13.5%

Row | Structure (SMILES) | displacement
24 | COc1c(Br)cc(Br)cc1/C=c1\sc2nc3ccccc3n2c1=O | 21.9%
25 | O=C(NCc1ccco1)c1nn2c(C(F)(F)F)cc(-c3ccccc3)nc2c1Cl | 1.6%
26 | Cc1cccc(NC(=O)CSc2nc(-c3ccccc3)c(-c3ccccc3)o2)c1C | -0.2%
27 | COc1ccc(NC(=O)c2c(NC(=O)c3ccccc3)sc3c2CCCC3)cc1 | 5.7%
28 | CCOc1ccccc1C(=O)Nc1nc(C)cs1 | 6.3%
29 | COc1ccccc1NCc1cccs1 | 11.4%
30 | Cc1cc(/C=C2/NC(=O)NC2=O)c(C)n1C | 23.7%
31 | Cc1ccc(N(CC(O)CN2CCCCC2)S(=O)(=O)c2ccc([N+](=O)[O-])cc2)cc1 (configuration not stated) | -3.6%
32 | CCCOC(=O)C1=C(C)NC2=C(C(=O)CCC2)C1c1cccc(F)c1 (configuration not stated) | 2.2%
33 | O=C(NCCc1ccccc1)C(=O)NC1CCCC1 | 6.1%
34 | O=C(N=Nc1c(O)[nH]c2c(Br)cc(Br)cc12)c1ccco1 | -12.3%
35 | COC(=O)C1=C(C)NC2=C(C(=O)c3ccccc32)C1c1ccc(I)o1 (configuration not stated) | 10.7%
36 | Cc1nc2ccc(Cl)cn2c1C(=O)NN=C1CCC(C(C)(C)C)CC1 (configuration not stated) | -11.2%
37 | CC(=O)Nc1ccc2c(c1)C(=O)c1ccccc1C2=O | 3.4%
38 | O=C(Nc1cccc(Cl)c1)c1ccc(NC(=O)c2cccs2)cc1 | 10.5%
39 | O=C(COc1ccccc1)Nc1cc(C(=O)O)cc(C(=O)O)c1 | 3.9%
40 | COc1ccc(COC(=O)C2=C(C)NC(=O)NC2c2cc(Cl)c(O)c(OC)c2)cc1 (configuration not stated) | 5.9%
41 | O=c1[nH]nc(SCc2cccc3ccccc23)c(=O)[nH]1 | -9.4%
42 | NC(=O)c1ccccc1NC(=O)Nc1ccc(Cl)cc1 | -9.1%
43 | Cc1ccsc1/C=C1\SC(=S)N(C(C)c2ccccc2)C1=O (configuration not stated) | -6.6%
44 | COc1ccc2c(c1OC)C(=O)N(c1cccc(F)c1)C2=O | -12.7%
45 | O=C(CSc1ncn[nH]1)Nc1ccc(C(=O)O)cc1 | 4.3%
46 | CCCC1CCC(c2nc(-c3cccnc3)no2)CC1 (configuration not stated) | -5.8%

Row | Structure (SMILES) | displacement
47 | COC(=O)NC(c1ccc(F)cc1)C(Cl)(Cl)Cl (configuration not stated) | 8.7%
48 | CCC/C(O)=C1\C(=O)CC(C)(C)CC1=Nc1cccc2ccccc12 | 0.8%
49 | CCN(CC)CCCCOc1c(C)cc(Cl)cc1Cl | 7.2%
50 | COc1ccccc1NC(=O)C1=C(C)NC(=O)NC1c1ccc(Cl)cc1 (configuration not stated) | 2.5%
51 | CCc1ccc(-c2cc(C(=O)Nc3nccs3)c3ccccc3n2)cc1 | 3.8%
52 | Cc1cc(C)c(/C(O)=C/c2nc3ccccc3oc2=O)c(C)c1 | 13.8%
53 | CC(C)c1ccc(CNc2cc(N3CCN(S(=O)(=O)c4ccccc4)CC3)ccc2[N+](=O)[O-])cc1 | 5.9%
54 | COc1ccc(C2NC(c3ccc(OC)cc3)C3CCCC2C3=O)cc1 (configuration not stated) | 10.6%
55 | C=CCN1C(=O)/C(=C\c2c(OCC)ccc3ccccc23)C(=O)NC1=S | 1.4%
56 | O=C(O)c1ccc(NC(=O)c2ccc3ccccc3n2)cc1 | 9.5%
57 | CCOC(=O)C1CCN(C(=O)c2cccc(F)c2)CC1 | -8.4%
58 | CCOC(=O)CCNC(=O)C(c1ccccc1)c1ccccc1 | 7.8%
59 | NC(=O)c1ccccc1NS(=O)(=O)Cc1ccccc1 | -0.2%
60 | O=C(CSc1nc2ccccc2s1)c1ccc2ccccc2c1 | 11.9%
61 | COc1cc(/C=N\n2c(C)nnc2C)cc(Br)c1O | -11.7%
62 | O=C1N=C(SCC(=O)N2CCCc3ccccc32)NC(=O)C1c1ccccc1 (configuration not stated) | -6.7%
63 | O=C(O)c1ccccc1NS(=O)(=O)c1cccc2cccnc12 | -3.5%
64 | Cc1cnnn1-c1cccc([N+](=O)[O-])c1 | -4%
65 | O=C(Nc1ccc(Nc2ccccc2)cc1)c1cccc(F)c1 | 3.6%
66 | CC(C)C(=O)Nc1cccc(S(=O)(=O)c2cccc(NC(=O)C(C)C)c2)c1 | 5.8%
67 | CCCOc1ccc(C(=O)Nc2cccc(C(=O)Nc3nccs3)c2)cc1 | -10.4%
68 | O=C(CN(c1ccc(Br)cc1)S(=O)(=O)c1ccccc1)NCCOc1ccccc1 | -1.5%
69 | COC(=O)c1ccccc1NC(=S)NC(NC(=O)c1ccc(F)cc1)C(Cl)(Cl)Cl (configuration not stated) | 8.3%

Row | Structure (SMILES) | displacement
70 | COc1ccc(C(=O)C2C(=O)c3ccccc3C2=Nc2ccccc2)cc1 (configuration not stated) | 7.3%
71 | CCCCn1ccc(=O)c2c(C(F)(F)F)nccc21 | 17.4%
72 | CC1=C(C(=O)Nc2ccccc2C)C(c2ccc(F)cc2)NC(=O)N1 (configuration not stated) | 16.2%
73 | CCOc1ccc(C2C3=C(CC(C)(C)CC3=O)OC3=C2C(=O)CC(C)(C)C3)cc1 | -9.8%
74 | Cc1cc(/C=N/O)c(C)n1-c1ccc(F)cc1 | 12.6%
75 | O=C(/C=C/Nc1cccc(C(F)(F)F)c1)c1ccc(Br)cc1 | 4.6%
76 | COC(=O)C1=C(C)NC2=C(C(=O)CC(c3cccs3)C2)C1c1ccc(C)o1 (configuration not stated) | 5.3%
77 | O=[N+]([O-])c1ccc(N2CCOCC2)cc1[N+](=O)[O-] | -4.6%
78 | O=C(NCc1ccccn1)c1ccc2c(c1)OCO2 | -4.9%
79 | CCOC(=O)CP(=O)(c1ccc(C)cc1)c1ccc(C)cc1 | 7.8%
80 | O=C(Oc1cccc(-c2cnc3ccccc3n2)c1)c1cccc(S(=O)(=O)N2CCOCC2)c1 | 225%
81 | Cn1cnnc1Sc1nc2c(c(=O)n(C)c(=O)n2C)n1Cc1ccc(F)cc1 | 4.2%
82 | CC(C)Oc1c(I)cc(I)cc1/C=C(/C#N)c1nc2ccccc2[nH]1 | 7.2%
83 | Cc1cccc(NC(=O)C2(c3ccccc3)CC2(Cl)Cl)c1C (configuration not stated) | 0.7%
84 | Cc1cc(/C=C2/SC(=O)NC2=O)c(C)n1-c1ccc(N2CCOCC2)cc1 | 11%
85 | Cc1onc(-c2c(Cl)cccc2Cl)c1C(=O)Nc1nncs1 | -16.8%
86 | CCOc1ccc(N(CC(=O)Nc2cccc(Br)c2)S(=O)(=O)c2ccc(SC)cc2)cc1 | 3.9%
87 | O=C(N/N=C/c1cc(Br)ccc1O)NC12CC3CC(CC(C3)C1)C2 | -1.7%
88 | Cc1ccc(-c2nnc(SCC(=O)OC(C)C)o2)cc1 | 14.5%
89 | Nc1nc2n(n1)C(C(F)(F)F)CC(c1ccco1)N2 (configuration not stated) | 2.9%
90 | COc1ccc(C2=C/C(=C\c3cccc(OC(C)=O)c3)C(=O)O2)cc1 | 25.4%
91 | Cc1cc(F)c(F)c(C(=O)N2CCOCC2)c1Cl | -7.4%
92 | CCCOC(=O)C1=C(C)NC2=C(C(=O)CC(C)(C)C2)C1c1cccc(F)c1 (configuration not stated) | 6.9%

Row | Structure (SMILES) | displacement
93 | CCN(CC)S(=O)(=O)c1cc(C(=O)NC2CCCCC2)ccc1Cl | -6.6%
94 | CCOc1ccc(NC(=O)CN(c2ccccc2CC)S(C)(=O)=O)cc1 | 2.2%
95 | O=C(Nc1cccc(Cl)c1)O/N=C\c1ccncc1 | -4.2%
96 | COc1cc(Cl)cc(/C=C2\C(=O)NC(=O)N(c3ccc(Br)c(C)c3)C2=O)c1O | -13.6%
97 | O=C(Nc1cc(Cl)cc(Cl)c1)c1ccc(Br)o1 | -13.8%
98 | O=C(O)/C=C/C(=O)Nc1ccc(F)c(F)c1 | 6.2%
99 | COc1ccc(C2=NN(C(C)=O)C(c3ccc([N+](=O)[O-])cc3)C2)cc1 (configuration not stated) | 4.1%
100 | O=c1/c(=C/c2ccc(-c3ccc([N+](=O)[O-])cc3Cl)o2)sc2nc3cc(Br)cnc3n12 | -4.2%
101 | Cc1ccc(-c2noc(/C=C/c3ccccc3)n2)cc1 | 2.9%
102 | Cc1cc(C(F)(F)F)nn1CC(=O)Nc1ccc(Cl)cc1Cl | 0.7%
103 | Cc1ccccc1OCCCCNCCO | -1.9%
104 | C=CCn1c(=O)c(C(=O)Nc2cccc(C)c2)c(O)c2ccccc21 | 14.5%
105 | CC1=Nc2cc(-c3cccc(Br)c3)nn2C(=O)C1 | 6.6%
106 | COc1ccc(OC)c(/C=N/n2c(C)nc3ccccc3c2=O)c1 | -9.7%
107 | C=CCNC(=O)c1ccc(I)cc1 | 5.2%
108 | CCOc1ccc(S(=O)(=O)N(CC(N)=O)c2ccc(C)cc2)cc1 | 5.1%
109 | CCCCOc1cccc(C(=O)Nc2cccc(-c3nc4ccccc4o3)c2)c1 | -49.2%
110 | COc1ccc(NC(=O)c2ccc(OCC(C)C)cc2)cc1 | 5.4%
111 | O=C1OC(c2ccccc2)=C/C1=C/c1ccc2c(c1)OCO2 | -0.2%
112 | CCOc1cc(C(=O)Nc2ccc(O)c(-c3nc4ccccc4s3)c2)cc(OCC)c1OCC | 12.2%
